Data taken from the supplement of paper PMC3334620.
In all, about 33,000 sequences were measured (“E-score (-0.5 to 0.5)”: median about -0.016, highest 2% from about 0.32 on). Some of the results follow.

target: T1, Stp1 (UniProt B3LFK1); assay: PBM E-score (8-mer binding enrichment) (E-score (-0.5 to 0.5)); higher = stronger / more preferred TF binding; most listed sequences are background and not binding sites; conditions: protein concentration: 200 nM; construct: GST-full length
T1 sequence: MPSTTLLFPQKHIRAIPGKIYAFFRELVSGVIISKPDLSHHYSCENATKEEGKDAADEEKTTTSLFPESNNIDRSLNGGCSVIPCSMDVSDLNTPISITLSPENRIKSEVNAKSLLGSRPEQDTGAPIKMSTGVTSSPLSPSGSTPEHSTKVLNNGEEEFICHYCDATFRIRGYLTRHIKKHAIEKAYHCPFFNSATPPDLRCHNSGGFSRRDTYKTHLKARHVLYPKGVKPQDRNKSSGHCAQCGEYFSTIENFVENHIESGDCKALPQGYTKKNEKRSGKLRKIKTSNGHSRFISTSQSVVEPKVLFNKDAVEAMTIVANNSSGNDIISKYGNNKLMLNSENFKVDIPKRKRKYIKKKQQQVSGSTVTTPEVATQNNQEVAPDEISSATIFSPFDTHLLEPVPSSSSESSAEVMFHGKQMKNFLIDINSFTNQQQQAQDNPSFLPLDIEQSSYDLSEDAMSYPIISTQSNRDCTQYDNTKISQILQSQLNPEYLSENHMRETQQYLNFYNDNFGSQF
In short: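 Yeast transcription factors, full-length or as DNA-binding domains, were expressed with a GST tag using PURExpress in vitro transcription/translation. At about 100-200 nM they were applied to universal all-10-mer Agilent arrays, double-stranded by primer extension on fresh or once-stripped slides. Fluorescent anti-GST detected bound protein, and masliner normalised the scans. E-scores for ungapped eight-base words, pooled with reverse complements, came from the Universal PBM Analysis Suite.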

Sequence | PBM E-score
GCGCGCGC | 0.396
GACCACAC | -0.0789
GACCCCTC | -0.368
CAGCGCTA | 0.0165
TACGGTAA | 0.157
CCTGACCC | -0.173
CTAACCAA | 0.079
AGAAGGCT | -0.102
GGGAGTGA | -0.0488
AACCCGAT | -0.0435
CAGCCGGC | 0.153
CAGGGTAC | -0.283
ATACTGAT | 0.162
GCTGAACA | 0.0152
GGCTTCAA | 0.221
CCGTAGTA | 0.105
ATAAAGTC | 0.139
AGGTTATA | -0.0417
CCTCGAAG | -0.0677
ACAAGGTA | -0.0272
AGTTAAAA | 0.197
GCCCCTAC | -0.188
GGATAGCC | 0.0249
GTAGTCAA | 0.00301
AAGTGTTC | -0.0432

Sequence | PBM E-score
CGGGAACC | -0.261
AAGTATGA | -0.0122
AAGAGAAT | 0.0337
ATTGCTAC | 0.0429
TCGTAAGA | -0.00593
GTGTAACA | 0.0681
CCGAACAC | 0.0129
CTCCAGCA | -0.266
ATGACCAA | -0.0118
AAAGGACC | 0.0732
CTCTGAGC | -0.22
GGTCCACA | -0.113
AACACTCG | 0.0624
CTGGCCCC | -0.311
CTACTGGC | -0.0297
AATAGCGC | 0.193
ATGTCGAC | 0.0335
GCCTCGCC | 0.314
AAATGAGG | -0.0464
AGGGTGTA | -0.0304
AGCGCACC | -0.119
GATTCACC | -0.206
GTCGACCA | -0.0268
ACGGTCGC | -0.12
AGGCTACT | -0.113

Sequence | PBM E-score
GTCATGAA | 0.0695
AATGTGAT | -0.103
CTCGTCCA | 0.136
AAGATCGA | 0.0364
CATTAAGC | 0.083
CTGTCATC | -0.21
TCGACGCA | 0.022
ACCTTTAA | -0.117
GTATATAC | -0.0138
AAACTCCG | 0.0574
CACTAGCG | -0.039
CCAGGGTA | -0.276
GATTACTA | 0.0291
AAACCCCG | 0.00861
ACGAGCAT | -0.218
CCGTACTA | 0.206
GCGGGCTA | -0.188
GCACAAGA | 0.176
TCCCGAGA | -0.045
CAAGGTCC | -0.184
AGCTTTCG | -0.168
ACCAACGA | -0.0672
GTCACCAC | -0.104
ATTCTCGG | 0.181
CTTTGGAC | 0.179

Sequence | PBM E-score
CAAGCCTA | 0.0446
TACATTGA | 0.0408
AGTTCGGC | 0.0626
TATGAGGA | -0.0663
ACTAAGAA | 0.0736
AGGAACAA | -0.114
GTAACCCA | 0.235
AGACTTAG | -0.269
ACGACACG | 0.0496
ACGTTACG | 0.0858
TATCCCAA | 0.0205
AGGTATCA | -0.027
ATCTATCC | 0.0113
ATTGTAGC | 0.0881
CATATCAC | 0.0345
ACGCTTAC | -0.0802
GGACCAAA | 0.0378
ACGAGTCC | -0.0144
GGCCATAC | 0.0794
CCCACTCA | -0.115
CCTAGTTA | -0.025
CATCGTAG | -0.128
AAAGCCAG | -0.168
AATTCGGG | -0.0912
CTGCTATC | -0.00394

Sequence | PBM E-score
GGTCTTGA | -0.178
CTGAGGAA | -0.14
AGGGTTAA | -0.234
ACCTGATG | -0.102
AGCAAGTA | -0.00665
ATAGTATC | 0.259
AATGGACC | 0.0385
ACAACCCG | -0.168
GGCCGCTA | 0.0203
ACATTTGC | 0.0875
ACAGAATG | 0.0711
AAAACGCA | 0.056
CTAGGCCA | -0.219
TCTTGAAA | 0.0933
ATACCCAT | -0.0185
CTTTGTAC | -0.0603
AACACGTG | 0.224
ACTGCCAG | -0.075
GGTCTTAA | -0.189
CCCCGTCC | -0.319
AAGCCGCG | 0.418
CCGCATGA | 0.203
ACGCCATA | 0.134
CCTCTAGC | -0.189
CAGCCAGG | -0.162

Sequence | PBM E-score
CATGACAA | 0.0222
GAGAATAC | 0.184
CATCCTAA | -0.0149
ACACTACT | -0.00666
CGAATCCC | -0.0512
AAATTCAA | 0.0716
TGACTTAA | -0.00308
ACACAAGC | 0.0856
CATAACAC | 0.0418
CACCATAG | 0.0197
CCAACCTA | -0.175
AGATGCGG | 0.221
GGCCAAAA | 0.117
GACATTTA | -0.0559
CATCATCA | 0.0728
AGCACTCA | -0.14
CGTACACG | 0.0507
AAGGGCGG | -0.0196
ACCGTAGA | 0.0293
GTACTTCA | 0.164
AACCACCG | -0.0618
ACGCGGAA | 0.151
CTATCGAA | -0.0316
CAGCTGCG | -0.0729
ACGACACC | -0.0079

Sequence | PBM E-score
CATGCAAA | 0.112
CATCTCAG | -0.0765
CAAATGGC | 0.199
ACGATGAA | 0.0706
ACCCGGTG | -0.183
CCGGTATC | -0.149
AACGCAGG | -0.153
AAAGAAGA | 0.0324
ACGGTGGC | -0.115
CGTTGGAC | -0.131
GACTTGGA | -0.246
ATTGTCCC | -0.286
GATAACCC | -0.281
CGACGAAA | 0.102
AATTCCAT | 0.134
CGGTCTGC | -0.0402
CTCTCTTC | -0.147
AAGCTCAA | -0.135
GCTGAAGC | -0.0652
AATACACG | 0.0447
CGAGGCGA | 0.289
AGCCCTCC | -0.283
